From article PMC4336329 (PLoS ONE, 2015)
Screen size: about 310,000 compounds; about 14,000 (4.5%) showed an effect of 50% or more. The effect is printed as a negative number. The list shows a part of the results.

These compounds were tested against human ether-à-go-go-related gene (hERG) potassium channel (human, UniProt Q12809) (assay: primary screen, population patch clamp on CHO cells stably expressing hERG).
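Further: peak tail current of the secondary pulse compared with the same well before compound.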

Chain of human ether-à-go-go-related gene (hERG) potassium channel (Q12809 whole entry, looked up): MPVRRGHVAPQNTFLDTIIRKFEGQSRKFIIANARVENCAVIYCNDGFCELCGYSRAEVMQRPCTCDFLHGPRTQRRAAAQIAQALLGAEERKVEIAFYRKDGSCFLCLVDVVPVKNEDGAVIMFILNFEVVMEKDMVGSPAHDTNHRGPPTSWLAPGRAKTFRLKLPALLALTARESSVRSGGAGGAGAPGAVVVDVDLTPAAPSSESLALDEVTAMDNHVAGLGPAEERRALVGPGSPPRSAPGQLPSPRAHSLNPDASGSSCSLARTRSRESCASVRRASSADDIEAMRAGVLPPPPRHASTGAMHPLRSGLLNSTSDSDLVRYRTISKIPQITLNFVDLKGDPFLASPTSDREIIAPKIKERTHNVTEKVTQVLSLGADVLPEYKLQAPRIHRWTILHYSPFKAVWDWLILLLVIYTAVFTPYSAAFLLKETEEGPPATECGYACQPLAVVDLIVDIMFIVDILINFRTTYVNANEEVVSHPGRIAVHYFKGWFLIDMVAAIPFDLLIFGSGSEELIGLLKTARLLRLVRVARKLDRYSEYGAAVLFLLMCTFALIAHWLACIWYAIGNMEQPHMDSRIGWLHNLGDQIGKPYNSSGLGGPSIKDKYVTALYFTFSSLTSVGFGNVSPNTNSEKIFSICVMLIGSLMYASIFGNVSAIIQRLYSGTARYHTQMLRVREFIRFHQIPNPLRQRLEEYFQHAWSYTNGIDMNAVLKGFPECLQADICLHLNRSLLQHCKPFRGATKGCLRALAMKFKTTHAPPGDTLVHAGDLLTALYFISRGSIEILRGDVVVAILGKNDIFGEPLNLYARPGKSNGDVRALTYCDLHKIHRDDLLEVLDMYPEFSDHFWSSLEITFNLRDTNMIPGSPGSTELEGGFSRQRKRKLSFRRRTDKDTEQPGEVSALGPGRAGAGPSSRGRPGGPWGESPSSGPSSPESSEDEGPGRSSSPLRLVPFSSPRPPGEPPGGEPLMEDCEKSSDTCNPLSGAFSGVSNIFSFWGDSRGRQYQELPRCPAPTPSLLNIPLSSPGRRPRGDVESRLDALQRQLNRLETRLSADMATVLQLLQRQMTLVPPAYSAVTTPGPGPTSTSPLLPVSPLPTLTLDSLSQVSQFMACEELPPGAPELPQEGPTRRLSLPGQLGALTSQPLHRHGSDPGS

SMILES | hERG current change (%, negative = inhibition) at 10uM
O=C(c1ccc2c(c1)OCO2)N1CCN(c2ccc(Cl)cc2)CC1 | -33.3%
C=CCN=C1SC(C)(C)C(=O)N1S(=O)(=O)c1ccc(C)cc1 | -5.05%
O=C(O)c1cc(-c2ccc(/C=N/N3C(=O)C4C5C=CC(CC5)C4C3=O)o2)ccc1Cl (stereo not drawn) | 21.9%
O=C(/C=C/c1ccc(Cl)cc1)N1CCN(c2c(Cl)cccc2[N+](=O)[O-])CC1 | -58%
O=C(NCCN1CCc2ccccc2C1)Nc1ccc([N+](=O)[O-])cc1 | -70.1%
COc1cccc(NC(=O)c2ccccc2-c2ccccc2)c1 | -5.19%
COc1ccc(N2C(=O)c3ccccc3NC2c2ccc(OC)c(CN3CCOCC3)c2)cc1 (stereo not drawn) | -7.62%
CC(C)OCCCNC(=O)CN1C(=O)c2cccc3cccc1c23 | 12.4%
COC(=O)c1ccccc1NC(=O)C1CCN(C(=O)Cc2ccccc2)CC1 | -34%
CC(C)(C)NC(=O)Cn1c(SCC(=O)NC2CCCC2)nc2ccccc21 | 7.18%
COc1ccc(Cl)cc1NC(=O)NN1CCN(C)CC1 | -41.8%
CC1=C/C(=N\NC(=S)NCCc2ccccc2)CC(C)(C)C1 | -4.83%
CCCn1c(=O)c2ccccc2n2c(Sc3nnnn3-c3ccccc3)nnc12 | -23.5%
COc1ccc(NC(=O)c2ccccn2)cc1OC | 3.32%
COc1ccc(OC)c(S(=O)(=O)N2CCC(C(=O)NC3CC3)CC2)c1 | 13%
O=C(Nc1cc2c3c(c1)CC(=O)N3CCC2)c1ccccc1C(F)(F)F | -2.1%
COc1cc(OC)cc(C(=O)Nc2ccc(-n3cnnn3)c(C)c2)c1 | -8.74%
O=[N+]([O-])c1cccc(CN2CC=C(c3ccc(F)cc3)CC2)c1 | -39.2%
O=[N+]([O-])c1ccc2nc(-c3ccc(Cl)cc3)[nH]c2c1 | 8.39%
Cc1oc(-c2cc(F)ccc2F)nc1CN(C)Cc1ccc2nccnc2c1 | -21.8%
CC(=O)Nc1ccccc1C(=O)OCc1ccc(C(=O)c2ccccc2)cc1 | 5.33%
Brc1ccccc1-c1nnc(CSc2nnc3sc4ccccc4n23)o1 | -28.9%
Cc1nonc1NC(=O)CSc1nnc(-c2ccoc2C)n1C | 4.89%
COc1cccc(NC(=O)CN(C)C(=O)c2ccccc2OCC(=O)Nc2cccc(C(F)(F)F)c2)c1 | -1.61%
